# Measured values taken from publication PMC6919601, “Identification of Plasmodium dipeptidyl aminopeptidase allosteric inhibitors by high throughput screening” (PLoS ONE, 2019).
# The whole screen tested about 110,000 compounds, of which about 230 (0.21%) showed an effect of 50% or more. This is one part of the list.
# Target: DPAP1 (Plasmodium falciparum, UniProt Q8IIJ9)
# Experiment: primary screen, percent inhibition; read by cleavage of a fluorogenic dipeptide substrate; higher = more effect of the substance
# Design: species or system P. falciparum D10 trophozoite lysates; single well
# 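Note: 30 min substrate incubation versus DMSO and 10 µM JCP410 controls.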
# DPAP1, sequence (Q8IIJ9 whole entry, looked up): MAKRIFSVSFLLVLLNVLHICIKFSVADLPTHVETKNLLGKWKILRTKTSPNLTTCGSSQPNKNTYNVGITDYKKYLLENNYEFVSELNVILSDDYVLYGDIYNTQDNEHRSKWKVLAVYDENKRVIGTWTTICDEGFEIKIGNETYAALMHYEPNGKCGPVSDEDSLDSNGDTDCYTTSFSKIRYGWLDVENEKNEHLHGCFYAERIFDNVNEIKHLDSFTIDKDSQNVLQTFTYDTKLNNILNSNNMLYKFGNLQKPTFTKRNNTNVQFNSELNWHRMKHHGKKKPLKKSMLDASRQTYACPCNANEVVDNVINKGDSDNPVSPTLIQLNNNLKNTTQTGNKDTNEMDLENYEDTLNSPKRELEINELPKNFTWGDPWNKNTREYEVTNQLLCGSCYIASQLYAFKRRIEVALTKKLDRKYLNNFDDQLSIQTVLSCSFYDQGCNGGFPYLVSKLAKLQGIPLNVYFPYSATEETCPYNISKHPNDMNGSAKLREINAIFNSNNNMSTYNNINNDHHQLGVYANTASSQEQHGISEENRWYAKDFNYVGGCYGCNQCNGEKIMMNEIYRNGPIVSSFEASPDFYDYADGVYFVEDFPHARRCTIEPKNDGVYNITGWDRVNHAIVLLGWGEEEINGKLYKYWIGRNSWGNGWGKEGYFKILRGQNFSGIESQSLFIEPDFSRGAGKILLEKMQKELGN
row,Compound,% Inhibition @ 10 uM [%]
1,C=CCNC(=O)C1=CC(c2ccc(OC)cc2)=NS(=O)(=O)N1C,0.655
2,N#Cc1ccccc1NC(=O)COc1ccc(Cl)cc1Cl,0.757
3,CN(C)CCN(Cc1ccccc1)Cc1ccccc1Cl,3.19
4,COc1ccc(C(=O)CCC(=O)Nc2ccc(C)cc2)cc1,0.291
5,COC(=O)c1ccc(COc2ccc3c(=O)c(Oc4ccccc4Cl)coc3c2)cc1,0.565
6,CCN1c2ccccc2N(C)C1(C)c1ccccc1 (stereo not drawn),-0.864
7,O=C(Nc1ccc(N2CCN(Cc3ccccc3)CC2)cc1)c1cncc(Br)c1,-3.45
8,Cc1cc(C)c(C)c(S(=O)(=O)N2CCC(N(C)CCC(C)C)CC2)c1C,-3.12
9,COCCNC(=O)CCCOc1ccc(Cl)cc1Cl,-0.999
10,CN(Cc1cccc(Oc2ccccc2)c1)Cc1cccc2ccccc12,1.26
11,O=C1C2C(c3ccccc3)C=CC(c3ccccc3)C2C(=O)N1CCCO (stereo not drawn),6.82
12,N#Cc1ccc(-c2ccc(OCC(=O)NCc3ccccc3)cc2)cc1,4.44
13,CCCNC(=O)CSCc1nc(-c2ccc(Cl)cc2)oc1C,-1.05
14,NC(=O)c1c(NC(=O)c2cccc(Br)c2)sc2c1CCCC2,5.12
15,COC(=O)C1=C(C)N=C(C)/C(=C(/O)OC)C1c1ccccc1Cl (stereo not drawn),2.45
16,CC1=C(C(=O)Nc2ccccc2)C2(CCCCC2)C(C#N)=C(SCc2ccccc2)N1,4.15
17,CCCC(=O)Nc1cccc(NC(=O)c2ccccc2Br)c1,-4.14
18,CSc1ccc(CN2CCN(Cc3cccc(C)c3)CC2)cc1,-4.67
19,CCCOc1ccc(C(=O)N2CCCCC2)cc1OC,3.89
20,N#CC1=C(N)N(c2ccc(Br)cn2)C2=C(C(=O)CCC2)C1c1ccsc1 (stereo not drawn),-4.67
21,CCOC(=O)c1cc(C)n(CCc2ccc(OCC)c(OCC)c2)c1C,4.82
22,COc1cc(C(=O)NCCC2=CCCCC2)cc(OC)c1OC,-0.473

row,Compound,% Inhibition @ 10 uM [%]
1,Nc1c(C(=O)Nc2c(Cl)cccc2Cl)sc2nc(-c3cccnc3)ccc12,5.25
2,CC1(C)CC(NCc2ccccc2)CCO1 (stereo not drawn),-5.07
3,COc1cc(CNC23CC4CC(C)(CC(C)(C4)C2)C3)cc(Br)c1OCC(N)=O,-2.09
4,N#CC1=C(N)Oc2cc(O)c(Cl)cc2C1c1ccc(F)cc1 (stereo not drawn),-6.78
5,O=C(NC1CCCC1)C1CCN(S(=O)(=O)c2ccc(-n3cnnn3)cc2)CC1,-1.07
6,CN(CCc1ccccn1)Cc1ccsc1,5.35
7,COc1cccc(OCCCCNCC2CCCO2)c1 (stereo not drawn),0.565
8,Cc1cc(C)n(-c2ccc(C(=O)Nc3ccccc3)cc2)n1,-5.06
9,CCOc1ccccc1C(=O)N1CCN(c2ccccc2OC)CC1,22.6
10,CC(=O)/C(=C/Nc1ccc(F)cc1)C(=O)Nc1ccccc1,-0.864
11,COc1cccc(NC(=O)c2ccccc2C)c1,1.91
12,COc1ccc(C(=O)C2=C(O)C(=O)N(C)C2c2ccc(OC)cc2OC)cc1 (stereo not drawn),8.07
13,O=C1NC(=O)C(C(CC(=O)c2ccccc2)c2ccccc2)C(=O)N1 (stereo not drawn),1.24
14,Brc1ccc(OCCCCCN2CCCCC2)cc1,-1.41
15,CN1C(=O)N(C)c2cccc3cccc1c23,-0.0369
16,CCN(CC)CCN(C(=O)c1ccco1)c1nc2c(F)cc(F)cc2s1,-3.22
17,CSc1ccc(CN2CCN(C(C)=O)CC2)cc1,-9.4
18,Nc1c(-c2nc(-c3cccnc3)no2)nnn1-c1ccccc1F,3.73
19,COc1ccc(Cn2c(C(=O)O)c(CNC3CCCCC3)c3ccc(OC)cc32)cc1,3.12
20,CCN(CC)CCCNC(=O)C1CCN(C(=O)c2oc3cc4sc(N(C)C)nc4cc3c2C)CC1,-1.37
21,CC1CC(C)CN(S(=O)(=O)N2CCCC(C(=O)NC3CC3)C2)C1 (stereo not drawn),2.18
22,CC1=C(C(=O)Nc2ccc(C)cc2)C(c2cccs2)NC(S)=N1 (stereo not drawn),0.565

row,Compound,% Inhibition @ 10 uM [%]
1,CC(C)CC(C)(NC(=O)OCc1ccccc1)C(=O)NCC#N (stereo not drawn),0.079
2,O=C(O)C1(c2ccc(O)cc2)CCCC1,-3.27
3,CS(=O)(=O)N(CC(=O)NC1CC2CCC1C2)c1cc(C(F)(F)F)ccc1Cl (stereo not drawn),6.5
4,COc1ccc(-n2c(SCC(=O)N3CCCC3)nc3nnc(C)c-3c2N)cc1,-0.458
5,COc1ccc(C2C(C#N)=C(N)Oc3c2sc2ccccc32)c2ccccc12 (stereo not drawn),4.55
6,COc1cc(C2C(C#N)=C(N)OC(C)=C2C(=O)OC(C)C)cc(OC)c1OC (stereo not drawn),-0.597
7,O=C(NCc1ccc(F)cc1)c1ccc2c(c1)nc(S)n1c3ccccc3nc21,2.89
8,O=C(CSc1nc2ccccc2o1)Nc1ccc(Cl)cc1Cl,6.79
9,Cc1cccc(C)c1OCC(=O)Nc1ccc(S(=O)(=O)N2CCOCC2)cc1,0.316
10,Cc1nc2c(c(C)c1CCC(=O)NCCc1c[nH]cn1)c(=O)n(C)c(=O)n2C,1.91
11,O=C(O)c1cc(-c2ccc3c(c2)OCO3)nc2ccc(Br)cc12,-5.7
12,CCOc1ccc(-c2[nH]nc3c2C(c2cccs2)C(C#N)=C(N)O3)cc1OC (stereo not drawn),0.674
13,CCCCCCc1cc(O)c2c3c(c(=O)oc2c1)CCC(C)C3 (stereo not drawn),-2.6
14,O=C(O)CCCCCN1C(=O)C(O)=C(C(=O)/C=C/c2ccccc2)C1c1ccccc1F (stereo not drawn),-1.93
15,O=C(/C=C/c1ccccc1)NC(=S)N1CCOCC1,-2.66
16,COc1ccccc1/C=C1/SC(Nc2ccccc2O)=NC1=O,-6.36
17,Cc1cc(C)c(S(=O)(=O)Nc2ccc(F)cc2)c(C)c1,2.46
18,COc1ccc(CCNc2nc3ccc(C)cc3n3nnnc23)cc1OC,-2.92
19,FC(F)Oc1ccccc1C1C=C(c2ccc(Br)s2)Nc2ncnn21 (stereo not drawn),0.219
20,Cc1cc(NC(=O)C(=O)NC(C)CCc2ccccc2)no1 (stereo not drawn),-3.49
21,O=C1/C(=C\c2cccnc2)Oc2cc(O)ccc21,0.628
22,CC(C(=O)NCCCN1CCOCC1)n1cccc1C(=O)c1ccccc1 (stereo not drawn),5.84
